{"source": "PubChem BioAssay AID504333", "about": "(National Center for Advancing Translational Sciences (NCATS), 2011)", "note": "Values joined by “and” are separate entries in the source; they are usually repeats but may differ in a detail not shown here. Equal values may be shown once. Hit rate of the full screen: of about 360,000 compounds, about 16,000 (4.4%) were called active. Inconclusive means that the source gave no clear call. Such entries were picked first, then a sample of the others. Calls come from the whole dose curve; as a rule, active = well fitted inhibition curve with a large enough effect; inconclusive = small, poorly fitted or top-dose-only effect; inactive = no such curve, though single readings can be large or run the other way. Where the call is inconclusive, the potency comes from a doubtful curve fit. % is set by controls: 0 for no effect and ±100 for the full control effect; potency is the fitted concentration of half-maximal effect; tags give direction and shape of the fitted curve.", "data": [{"target": "Bromodomain adjacent to zinc finger domain protein 2B (Homo sapiens) (UniProt Q9UIF8)", "sequence (Q9UIF8 whole entry, looked up, the tested form may be a part)": "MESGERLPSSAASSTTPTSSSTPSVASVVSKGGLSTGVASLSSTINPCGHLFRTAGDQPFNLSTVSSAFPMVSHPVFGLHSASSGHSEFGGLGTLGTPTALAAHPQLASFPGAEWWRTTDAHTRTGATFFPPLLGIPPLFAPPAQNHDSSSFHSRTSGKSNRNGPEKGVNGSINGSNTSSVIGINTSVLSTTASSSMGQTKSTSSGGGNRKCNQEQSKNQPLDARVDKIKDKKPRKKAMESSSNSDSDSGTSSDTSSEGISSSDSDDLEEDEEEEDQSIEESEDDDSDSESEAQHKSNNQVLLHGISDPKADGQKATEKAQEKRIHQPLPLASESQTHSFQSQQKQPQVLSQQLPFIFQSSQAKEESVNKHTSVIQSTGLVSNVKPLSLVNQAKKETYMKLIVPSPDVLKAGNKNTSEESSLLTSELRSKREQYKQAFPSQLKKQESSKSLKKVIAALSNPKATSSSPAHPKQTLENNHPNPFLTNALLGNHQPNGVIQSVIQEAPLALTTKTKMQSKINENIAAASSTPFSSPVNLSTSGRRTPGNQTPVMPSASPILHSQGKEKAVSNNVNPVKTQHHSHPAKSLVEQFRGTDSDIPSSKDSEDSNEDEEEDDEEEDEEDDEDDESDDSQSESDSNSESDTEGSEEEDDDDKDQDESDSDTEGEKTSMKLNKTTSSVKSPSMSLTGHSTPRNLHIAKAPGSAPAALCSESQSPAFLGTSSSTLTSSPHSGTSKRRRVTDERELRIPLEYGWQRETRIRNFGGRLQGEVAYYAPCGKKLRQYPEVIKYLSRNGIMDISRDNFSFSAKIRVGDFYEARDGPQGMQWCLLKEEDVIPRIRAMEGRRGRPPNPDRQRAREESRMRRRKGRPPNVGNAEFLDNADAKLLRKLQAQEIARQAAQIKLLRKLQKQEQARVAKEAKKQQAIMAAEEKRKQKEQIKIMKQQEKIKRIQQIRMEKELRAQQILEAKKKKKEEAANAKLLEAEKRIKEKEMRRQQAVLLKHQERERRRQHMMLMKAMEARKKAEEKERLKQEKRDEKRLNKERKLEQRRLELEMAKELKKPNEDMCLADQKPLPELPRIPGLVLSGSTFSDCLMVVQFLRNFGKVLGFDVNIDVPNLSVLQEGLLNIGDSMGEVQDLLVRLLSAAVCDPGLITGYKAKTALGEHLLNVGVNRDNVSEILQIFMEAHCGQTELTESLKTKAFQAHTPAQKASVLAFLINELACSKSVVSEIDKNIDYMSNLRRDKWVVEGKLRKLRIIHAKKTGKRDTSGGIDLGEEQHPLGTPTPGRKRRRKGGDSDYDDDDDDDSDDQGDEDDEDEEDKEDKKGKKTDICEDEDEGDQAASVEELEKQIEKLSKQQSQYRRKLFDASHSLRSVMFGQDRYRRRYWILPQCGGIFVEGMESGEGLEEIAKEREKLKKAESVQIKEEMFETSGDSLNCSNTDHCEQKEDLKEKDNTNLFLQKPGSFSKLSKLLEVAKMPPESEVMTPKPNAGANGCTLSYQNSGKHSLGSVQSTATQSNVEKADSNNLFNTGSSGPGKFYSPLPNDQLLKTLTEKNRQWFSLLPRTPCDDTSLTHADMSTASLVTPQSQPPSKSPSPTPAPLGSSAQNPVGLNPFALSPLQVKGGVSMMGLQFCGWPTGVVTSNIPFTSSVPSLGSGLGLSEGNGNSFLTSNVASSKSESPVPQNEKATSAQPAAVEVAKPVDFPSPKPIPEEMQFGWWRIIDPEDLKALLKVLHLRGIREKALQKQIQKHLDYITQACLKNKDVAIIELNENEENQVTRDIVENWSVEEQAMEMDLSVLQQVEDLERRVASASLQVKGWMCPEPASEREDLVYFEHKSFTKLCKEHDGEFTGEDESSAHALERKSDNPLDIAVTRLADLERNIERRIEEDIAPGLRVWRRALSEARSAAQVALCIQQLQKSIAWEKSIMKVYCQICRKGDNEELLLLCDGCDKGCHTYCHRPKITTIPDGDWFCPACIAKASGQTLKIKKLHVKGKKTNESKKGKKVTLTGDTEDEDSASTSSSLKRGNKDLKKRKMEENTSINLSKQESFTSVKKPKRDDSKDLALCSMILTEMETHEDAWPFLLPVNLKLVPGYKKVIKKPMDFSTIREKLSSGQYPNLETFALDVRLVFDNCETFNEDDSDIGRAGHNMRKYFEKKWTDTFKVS", "assay": "qHTS Assay for Inhibitors of BAZ2B; note: nearly all actives have a fitted effect of over 60% in size", "conditions": "AlphaScreen BAZ2B-H3K14Ac peptide displacement; activity change, negative = inhibition: at 114 µM (top of the series) unless noted", "summary_of_the_method": "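Compounds, titrated to a top concentration of 110 uM, were incubated 30 min at room temperature with preformed BAZ2B/acetyl-K14 H3 peptide complex (50 nM each). Proximity signal was measured by AlphaScreen after 20 min with beads.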", "values": [{"smiles": "COc1cc(NS(=O)(=O)c2ccc(NC(=S)NC(=O)c3ccco3)cc2)nc(OC)n1", "Potency": "inconclusive: 79.4 µM [inhibitor, single point]"}, {"smiles": "COc1cc(N=c2oc3c(C)ncc(CO)c3cc2C(N)=O)cc(OC)c1OC", "Potency": "inconclusive: 56.2 µM [inhibitor, partial curve]"}, {"smiles": "COc1ccccc1N(CC(=O)NCCc1ccccc1)S(C)(=O)=O", "Potency": "inactive"}, {"smiles": "Cc1cc(C(=O)N/N=C/c2cccc([N+](=O)[O-])c2O)n[nH]1", "Potency": "active: 31.6 µM"}, {"smiles": "COc1ccccc1NC(=O)CCN1C(=O)C2CC=CCC2C1=O", "note": "(stereo not drawn)", "Potency": "inactive"}, {"smiles": "Cc1ccc(-n2c(N)c(C(=O)N3CCCCC3)sc2=S)cc1", "Potency": "inconclusive: 31.6 µM [inhibitor, single point]"}, {"smiles": "Cc1ccc(-c2csc(N3CCN(c4cc5c(cc4Cl)nc(-c4ccncc4)n5CCN4CCCCC4)CC3)n2)cc1", "Potency": "inconclusive: 89.1 µM [inhibitor, single point]"}, {"smiles": "CCNc1ccc2noc3c2c1C(=O)c1ccccc1-3", "Potency": "active: 31.6 µM"}, {"smiles": "CC1CC2(CCCCC2)N2C(=O)C(=O)c3cccc1c32", "note": "(stereo not drawn)", "Potency": "inconclusive: 44.7 µM [inhibitor, partial curve]"}, {"smiles": "COc1ccc(C)cc1NC(=O)CN1CCCN(S(=O)(=O)c2ccc(Br)cc2)CC1", "Potency": "inactive"}, {"smiles": "Cc1noc(NS(=O)(=O)c2ccc(NC(=O)CSc3nc4c(cc3C#N)CCC4)cc2)c1C", "Potency": "inconclusive: 89.1 µM [inhibitor, single point]"}, {"smiles": "Cc1onc(-c2ccccc2Cl)c1C(=O)N1CCN(C)CC1", "Potency": "inactive"}, {"smiles": "Cc1cc(C)c(S(=O)(=O)Nc2ccc(-c3ccc(N4CCCCC4)nn3)cc2)c(C)c1", "Potency": "inactive"}, {"smiles": "COc1cc(/C=N/Nc2ccc(Cl)c(C(=O)O)c2)ccc1OC(=O)c1cccs1", "Potency": "inconclusive: 56.2 µM [inhibitor, partial curve]"}, {"smiles": "Cc1oc2cc(O)ccc2c(=O)c1Oc1ccc2ccccc2c1", "Potency": "inconclusive: 89.1 µM [inhibitor, single point]"}, {"smiles": "N#CCCn1c(Cl)nc2ccccc21", "Potency": "inconclusive: 3.55 µM [inhibitor, single point]"}, {"smiles": "Cc1scc(-c2n[nH]c(=S)n2C(C)c2ccccc2)c1C", "note": "(stereo not drawn)", "Potency": "inconclusive: 44.7 µM [inhibitor, partial curve]"}, {"smiles": "O=C(O)C1C2C=CC(C2)C1C(=O)NCCc1ccncc1", "note": "(stereo not drawn)", "Potency": "inconclusive: 89.1 µM [inhibitor, single point]"}, {"smiles": "COc1ccc2[nH]c3c(=O)n(/N=C/c4ccc(OC)c(CN5CCCC5)c4)c(C)nc3c2c1", "Potency": "inconclusive: 100 µM [inhibitor, partial curve]"}, {"smiles": "Cc1ccc(C(=O)N/N=C/c2cccc(OC(=O)/C=C/c3ccco3)c2)cn1", "Potency": "active: 50.1 µM"}, {"smiles": "Cc1ccc(C)c(NC(=O)N2CCN(c3nnc(C)c4c(C)n(-c5ccccc5)nc34)CC2)c1", "Potency": "inactive"}, {"smiles": "Nc1ccc(N(CCO)CCO)cc1", "Potency": "active: 50.1 µM"}, {"smiles": "CN(C)CCCn1c(SCc2c(Cl)cccc2Cl)nnc1-c1ccncc1", "Potency": "active: 70.8 µM"}, {"smiles": "O=C(Nc1nnc(-c2ccccn2)o1)c1cccc(Br)c1", "Potency": "inconclusive: 89.1 µM [inhibitor, single point]"}, {"smiles": "CC(=O)Nc1scc(-c2ccccc2)[n+]1-c1ccc(C)cc1", "Potency": "inconclusive: 70.8 µM [inhibitor, partial curve]"}, {"smiles": "COc1ccc(C(=O)NCC(=O)OCC(=O)Nc2ncc(Cl)cc2Cl)cc1[N+](=O)[O-]", "Potency": "inconclusive: 89.1 µM [inhibitor, single point]"}, {"smiles": "CC(OC(=O)c1cccc(S(=O)(=O)N2CCCCC2)c1)C(=O)NC1CCCCC1C", "note": "(stereo not drawn)", "Potency": "inactive"}, {"smiles": "COc1ccc(Nc2nc(-c3ccccc3)c3cc(Br)ccc3n2)cc1", "Potency": "inconclusive: 8.91 µM [inhibitor, full curve, poor fit]"}, {"smiles": "CCn1c(CN2CCCCC2)nc2cc(NC(=O)COc3cc(C)ccc3C(C)C)ccc21", "Potency": "inconclusive: 31.6 µM [inhibitor, partial curve]"}, {"smiles": "COc1ccc(-n2c(Cc3cccn3C)nnc2SCC(=O)Nc2cccc(C)c2C)cc1", "Potency": "inconclusive: 50.1 µM [inhibitor, partial curve]"}, {"smiles": "CC1CC(C)CN(C(=O)CCCn2c(=S)[nH]c3ccccc3c2=O)C1", "note": "(stereo not drawn)", "Potency": "inactive"}, {"smiles": "O=C(NCC(O)CO)c1csc(Nc2cccc3ccccc23)n1", "note": "(stereo not drawn)", "Potency": "inconclusive: 50.1 µM [inhibitor, partial curve]"}, {"smiles": "CCOC(=O)/C=C1\\CN(Cc2cc(OC)c(OC)c(OC)c2)S(=O)(=O)c2ccccc21", "Potency": "inactive"}, {"smiles": "O=C(c1sc2cc([N+](=O)[O-])ccc2c1Cl)N1CCCCC1", "Potency": "inconclusive: 79.4 µM [inhibitor, single point]"}, {"smiles": "COc1cccc(C(=O)Nc2nc(-c3ccccc3)c(-c3ccccc3)o2)c1", "Potency": "inconclusive: 28.2 µM [inhibitor, full curve]"}, {"smiles": "CCOc1ccccc1Nc1nc2ccccc2n1C(C)C", "Potency": "inconclusive: 89.1 µM [inhibitor, single point]"}, {"smiles": "CNc1nc(NC#N)nc(SC)n1", "Potency": "inactive"}, {"smiles": "CC(C)(C)c1cc[n+](CC(=O)Nc2cc(C(F)(F)F)ccc2N2CCOCC2)cc1", "Potency": "inactive"}, {"smiles": "COc1ccc(N2CCN(c3oc(-c4ccccc4C)nc3S(=O)(=O)c3ccccc3)CC2)cc1", "Potency": "inconclusive: 7.94 µM [inhibitor, full curve]"}, {"smiles": "O=C(N/N=C/c1ccccc1C(=O)O)c1cccc(S(=O)(=O)N2CCCCC2)c1", "Potency": "inactive"}, {"smiles": "COc1ccc(-c2nc(Cn3c(SCc4cccc(F)c4)nc4cccnc43)c(C)o2)cc1", "Potency": "inconclusive: 31.6 µM [inhibitor, full curve]"}, {"smiles": "CCC(=O)NC(C)c1cc(Cl)c2cccnc2c1O", "note": "(stereo not drawn)", "Potency": "active: 39.8 µM and active: 31.6 µM"}, {"smiles": "COC(=O)C(NC(=O)c1ccc(OC)cc1)(Nc1ncc(S(=O)(=O)c2ccc([N+](=O)[O-])cc2)s1)C(F)(F)F", "note": "(stereo not drawn)", "Potency": "inconclusive: 70.8 µM [inhibitor, single point]"}, {"smiles": "CCc1cc2c(N3CCN(c4nnc(CC)s4)CC3)ncnc2s1", "Potency": "inconclusive: 89.1 µM [inhibitor, single point]"}, {"smiles": "COc1ccc2oc(-c3ccc(C)c(NC(=O)c4sc5ccccc5c4Cl)c3)nc2c1", "Potency": "inactive"}, {"smiles": "CC(C)c1ccc(C(=O)Nc2ccc(-c3nc4ccccc4s3)c(Cl)c2)cc1", "Potency": "inactive"}, {"smiles": "O=C(O)CN1C(=O)SC(Nc2ccc(C(=O)O)cc2)C1=O", "note": "(stereo not drawn)", "Potency": "inconclusive: 100 µM [inhibitor, single point]"}, {"smiles": "Cc1cccc(CCN(CC(=O)NCc2ccc(F)cc2)C(=O)c2csnn2)c1", "Potency": "inactive"}, {"smiles": "O=C(NCCc1cnc[nH]1)c1ccc(-c2ccccc2)cc1", "Potency": "inconclusive: 44.7 µM [inhibitor, partial curve]"}, {"smiles": "Cc1ccc(Sc2ccc(CO)cc2[N+](=O)[O-])cc1", "Potency": "inconclusive: 70.8 µM [inhibitor, single point]"}, {"smiles": "COc1ccc(C(=O)N/N=C/c2ccc(OC)c(CN3CCCc4ccccc43)c2)cc1", "Potency": "inconclusive: 7.94 µM [inhibitor, full curve, poor fit]"}, {"smiles": "CCn1c(-c2ccncc2)n[nH]c1=S", "Potency": "inconclusive: 89.1 µM [inhibitor, single point]"}, {"smiles": "CC(C)CC(=O)NC(=S)Nc1ccc(N2CCN(C(=O)c3cccs3)CC2)cc1", "Potency": "inconclusive: 28.2 µM [inhibitor, full curve]"}, {"smiles": "Cc1c(C)c2cccnc2c2ncccc12", "Potency": "active: 5.62 µM"}, {"smiles": "NC1CCN(c2c(F)cc3c(=O)c(C(=O)O)cn(C4CC4)c3c2Cl)C1", "note": "(stereo not drawn)", "Potency": "inconclusive: 89.1 µM [inhibitor, single point]"}, {"smiles": "CSCCC(NC(=O)c1ccco1)C(=O)OCc1cc([N+](=O)[O-])cc2c1OCOC2", "note": "(stereo not drawn)", "Potency": "inconclusive: 79.4 µM [inhibitor, single point]"}, {"smiles": "CCc1ccc(OCC(=O)Nc2ccc(-c3nc4ccccc4o3)c(O)c2)cc1", "Potency": "inconclusive: 100 µM [inhibitor, single point]"}, {"smiles": "O=[N+]([O-])c1ccc(Nc2ccccc2O)c2nonc12", "activity change, negative = inhibition": "inconclusive: -85.3% [inhibitor]"}, {"smiles": "O=C(Nc1ccc(F)cc1)C1CC(=O)n2ncnc2N1", "note": "(stereo not drawn)", "Potency": "inactive"}, {"smiles": "CCN(CC)C(=O)c1sc2c(c1C)c(=O)n(-c1ccc(OC)cc1OC)c(=O)n2Cc1cc(C)ccc1C", "Potency": "inconclusive: 79.4 µM [inhibitor, partial curve]"}, {"smiles": "CN1CCN(c2ccccc2NC(=O)c2ccc(N3CCCCC3)c([N+](=O)[O-])c2)CC1", "Potency": "active: 39.8 µM"}, {"smiles": "CC(=O)N1c2ccc(S(=O)(=O)NCc3ccc(Cl)cc3)cc2CC1C", "note": "(stereo not drawn)", "Potency": "inactive"}, {"smiles": "CCCCCCCN1CCN=C1Nc1ccccc1", "Potency": "inactive"}, {"smiles": "COc1cc(N2CCCC2)c(OC)cc1/C=C1/NC(=S)NC1=O", "Potency": "inconclusive: 89.1 µM [inhibitor, single point]"}, {"smiles": "COc1ccc(/C=N/NC(=O)C2c3ccccc3-c3ccccc32)cc1", "Potency": "inactive"}, {"smiles": "CCNC(=S)Nc1ccc(N2CCCCC2)cc1", "Potency": "active: 35.5 µM"}, {"smiles": "CC/C(=N\\NC(=S)NC(C)C)c1ccc(OC)c(OC)c1", "Potency": "inconclusive: 39.8 µM [inhibitor, partial curve]"}, {"smiles": "O=C(NCc1nc2ccccc2[nH]1)c1ccc(Cl)c(S(=O)(=O)N2CCCC2)c1", "Potency": "inactive"}, {"smiles": "c1ccc(Cc2ccc(OCCCNC3CCCC3)cc2)cc1", "Potency": "active: 56.2 µM"}, {"smiles": "CC(=O)N1CCCc2cc(S(=O)(=O)N3CCC(C(=O)NCc4ccccc4Cl)CC3)ccc21", "Potency": "inactive"}, {"smiles": "CCC(=O)N1c2ccccc2CC1C(=O)NCCN1CCN(c2cccc(Cl)c2)CC1", "note": "(stereo not drawn)", "Potency": "inconclusive: 70.8 µM [inhibitor, single point]"}, {"smiles": "CCN1/C(=C/c2ccc3cc(C)ccc3[n+]2C)Sc2ccc3sccc3c21", "Potency": "active: 44.7 µM"}, {"smiles": "Cc1ccc(NC(=O)CSc2nccn2Cc2ccco2)cc1", "Potency": "inconclusive: 63.1 µM [inhibitor, partial curve]"}]}]}
